Measured values from PubChem BioAssay (NCATS).
The shares of active, inactive and inconclusive entries below differ from those in the screen. Potencies of inconclusive entries are left out as doubtful fits. Calls of active or inactive are those of the source. The call rests on the fitted dose curve; in most records, active means well fitted inhibition curve with a large enough effect; inconclusive means small, poorly fitted or top-dose-only effect; inactive means no such curve, though single readings can be large or run the other way.

Biological target: Cytochrome P450 3A7 (Homo sapiens) (UniProt P24462)
UniProt P24462, sequence (P24462 whole entry, looked up): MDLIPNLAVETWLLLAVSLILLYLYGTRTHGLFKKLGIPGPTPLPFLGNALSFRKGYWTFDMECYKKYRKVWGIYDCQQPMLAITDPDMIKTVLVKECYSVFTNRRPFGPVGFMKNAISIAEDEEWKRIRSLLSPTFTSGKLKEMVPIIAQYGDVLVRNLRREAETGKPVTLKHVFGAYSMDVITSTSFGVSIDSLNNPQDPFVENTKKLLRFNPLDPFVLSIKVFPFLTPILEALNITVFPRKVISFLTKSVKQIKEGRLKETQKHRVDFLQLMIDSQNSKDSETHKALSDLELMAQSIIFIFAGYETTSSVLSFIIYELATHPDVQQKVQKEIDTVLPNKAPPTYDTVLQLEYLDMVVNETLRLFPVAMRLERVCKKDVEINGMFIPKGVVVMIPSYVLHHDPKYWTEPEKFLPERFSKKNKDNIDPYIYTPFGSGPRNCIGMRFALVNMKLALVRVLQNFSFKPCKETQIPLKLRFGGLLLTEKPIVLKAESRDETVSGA
Assay: Cytochrome P450 family 3 subfamily A member 7 (CYP3A7) small molecule antagonists: luciferase biochemical qHTS assay (AID 1963596); further: nearly all actives have a fitted effect of over 40% in size
Conditions: P450-Glo CYP3A7 enzyme luminescence, 1 h; series mostly up to 57.4 µM; activity change, negative = inhibition: at the top concentration
Procedure, shortened: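 Recombinant CYP3A7 P450-Glo luminescent assay: enzyme-proluciferin substrate mix preincubated with compound 10 min at room temperature, reaction started with NADPH regeneration system for 1 h. Luciferin detected by luminescence; ketoconazole as positive control.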
On the % scale 0 is the no-effect control and ±100 the full control effect; potency means the concentration at half of the fitted maximal effect; tags describe the fitted curve by direction and shape.

Structure (SMILES) | Potency | activity change, negative = inhibition
Cc1ccc([N+](=O)[O-])[c]2c1[O][Hg]2 | active: 0.617 µM | 
CNCC(O)c1ccc(O)cc1 (stereo not given) | inconclusive [inhibitor, single point] | 
O=c1[nH]c2cc(Cl)ccc2n1C1CCNCC1 | inconclusive [inhibitor, single point] | 
O=[N+]([O-])C(Br)(CO)CO | inconclusive [inhibitor, full curve] | 
C[C@]12CC[C@H]3[C@@H](CC=C4C[C@@H](O)CC[C@@]43C)[C@@H]1CC[C@@H]2O |  | inactive: -9.76%
CN1CCC(O)(c2ccc(F)cc2)C(C(=O)c2ccc(F)cc2)C1 (stereo not given) | inconclusive [inhibitor, partial curve, poor fit] | 
COc1cc(C[C@@H](C)N)c(OC)cc1C | inconclusive [inhibitor, full curve] | 
CC(NC(C)(C)C)C(=O)c1cccc(Cl)c1 (stereo not given) | inconclusive [inhibitor, partial curve, poor fit] | 
O=C(O)c1nn(Cc2ccc(Cl)cc2Cl)c2ccccc12 | inconclusive [inhibitor, partial curve, poor fit] | 
CC(C)=CCN1CC[C@@]2(C)c3cc(O)ccc3C[C@@H]1[C@@H]2C | inconclusive [inhibitor, full curve, poor fit] | 
CC[N+]1(CCOC(=O)C(O)(c2ccccc2)c2ccccc2)CCCCC1 |  | inactive: -27.8%
CCC1(c2ccccc2)CCC(=O)NC1=O (stereo not given) |  | inactive: 40.5%
NCCc1cc(O)c(O)cc1O | inconclusive [inhibitor, partial curve] | 
CC[N+](CC)(CC)CC |  | inactive: -3%
CN(C)CCc1c[nH]c2cccc(O)c12 | inconclusive [inhibitor, full curve] | 
